About 340 (0.77%) of roughly 44,000 compounds were called active. Roughly 5% stayed inconclusive and do not appear here. The call rests on the fitted dose curve; in most records, active means well fitted inhibition curve with a large enough effect; inconclusive means small, poorly fitted or top-dose-only effect; inactive means flat fitted curve, though single readings scatter. The list shows a part of the results.
Assay: Acumen qHTS Assay for Inhibitors of the mTORC1 Signaling Pathway in MEF (Tsc2-/-, p53-/-) Cells: Sytravon;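 further: plate controls were DMSO for no effect and rapamycin for full effect; nearly all actives have a fitted effect of over 50% in size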
Details: phospho-rpS6 immunofluorescence/PI, 24 h; series mostly up to 38.3 µM; activity change, negative = inhibition: at the top concentration
Method in brief: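 Tsc2-/-, p53-/- MEFs (empty-vector stable line) in DMEM + 10% FBS were treated with compounds 24 h at 37 degree Celsius, fixed, and immunostained for phospho-rpS6 (Alexa-488) with propidium iodide counterstain. Laser-scanning cytometry gave % positive cells, normalized against 7.5 nM rapamycin and DMSO.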

Activity change, negative = inhibition, inactive:
Cc1cc(C)n2nc(CNC(=O)c3cccc(Cl)c3)nc2n1 -9.12%
CSc1ccc(CCNC(=O)C(C)n2nc(C)c3c(C)n(-c4ccccc4)nc3c2=O)cc1 (stereo unspecified) -1.82%
Cc1cccc(CNC(=O)c2ccc(-c3nc(CS(=O)(=O)c4ccccc4)c(C)o3)cc2)c1 -3.62%
Cc1ccc(CCNC(=O)Cn2nc(C)c3c(C)n(-c4ccc(C)cc4)nc3c2=O)cc1 0.469%
Cc1ccc(NC(=O)COc2ccc3oc4c(c3c2)CCCC4)c(C)c1 -0.595%
CN(C)c1ccc(-c2nc(-c3ccccn3)no2)cc1[N+](=O)[O-] 1.73%
COc1ccccc1N1CCN(C(=O)C2CCN(S(=O)(=O)c3cccc4nonc34)CC2)CC1 -10.8%
Nc1ncc(S(=O)(=O)NCc2ccccc2F)cn1 4.18%
Cc1ccc(Nc2cc(C(=O)NC3CCCC3)c3ccccc3n2)cc1C -13.1%
CCOC(=O)c1c(C)n(-c2ccccc2)c2ccc(OC(=O)c3ccccc3Cl)cc12 0.94%
CC(C)COc1ccc(C(=O)NCC2OCCc3ccccc32)cc1 (stereo unspecified) 0.685%
CCOc1ccc(CCNC(=O)C2CCCN(c3nnc(C)c4c(C)n(-c5ccccc5)nc34)C2)cc1 (stereo unspecified) -12.2%
NC(=O)c1c(NC(=O)c2noc3c2CCCC3)sc2c1CCCC2 -0.864%
COc1ccc2oc(=O)c(C(=O)NCCc3c(C)[nH]c4c(C)cccc34)cc2c1 0.366%
CCOc1cc2[nH]c(=O)n(CCC(=O)N3CCN(c4cccc(Cl)c4)CC3)c(=O)c2cc1OCC -6.35%
COC(=O)c1cc(NC(=O)CCS(=O)(=O)c2cc(Br)cc3c2N(C(=O)C2CC2)CC3)cc(C(=O)OC)c1 1.69%
CCOC(=O)Cn1nc(C)c(NC(=O)COc2ccc(OC)cc2)c1C 6.77%
Cc1ccccc1C(=O)Nc1ccc(NC(=O)c2cccs2)cc1 3.62%
CCOc1ccc(-c2csc3ncnc(Nc4cccc(O)c4)c23)cc1 -17.4%
CCn1c2ccccc2c2cc(NC(=O)COc3cc(C)c(Cl)c(C)c3)ccc21 0.354%
COc1ccc(C(=O)NCC(c2ccco2)S(=O)(=O)c2ccccc2)cc1 (stereo unspecified) 0.252%
CCOC(=O)c1c(C)oc2nc(C)nc(N3CCN(c4ccc(C)cc4C)CC3)c12 -9.01%
CC(=O)N1CCCc2cc(S(=O)(=O)N3CCC(C(=O)NCc4ccc(F)cc4)CC3)ccc21 -8.11%
Cc1cccc(NC(=O)C2CCC(CNS(=O)(=O)c3ccc4c(c3)CCCC(=O)N4)CC2)c1C (stereo unspecified) 12.7%
CCCN(C(=O)C1CCN(S(=O)(=O)c2c(C)noc2/C=C/c2ccc(C)cc2)CC1)c1ccccc1F -1.76%
Cc1nc(-c2ccc(F)cc2)sc1CCNC(=O)c1ccccc1 0.833%
CC(=O)c1ccc(NC(=O)c2cccc(NC(=O)N3CCSc4ncccc43)c2)cc1 0%
CCOCCCNC(=O)c1c(NC(=O)Cc2coc3c(C)c(C)ccc23)sc2c1CCC2 -17.4%
Cc1cc(C)cc(N(C)S(=O)(=O)c2nnc(NC(=O)COc3ccc(C)c(C)c3)s2)c1 3.82%
CCCN(Cc1cc2cc(C)ccc2[nH]c1=O)C(=O)c1cccc(Cl)c1 -2.25%
COC(=O)c1cc(C)nc2c1c(=O)nc(SCc1cc(C)ccc1C)n2C1CC1 -0.0731%
COc1cc(OC)c(NC(=O)COc2ccccc2-c2nnc(-c3ccccc3)o2)cc1Cl -12.4%
CCc1ccccc1Nc1nn2c(=O)c3ccc(C(=O)NCCc4ccccc4)cc3nc2s1 -0.807%
Cc1c(Cl)cccc1NC(=O)CN1C(=O)c2ccccc2Sc2ncccc21 -4.01%
Cc1cccc(C(=O)NC2(C(F)(F)F)N=C(c3ccccc3)N(Cc3ccccc3)C2=O)c1 (stereo unspecified) -19.2%
CC(=O)N1CCc2c(sc3c2c(=O)n(-c2ccccc2Cl)c(=O)n3C)C1 0.0261%
Cc1ccc(-c2c(CN3CCN(c4cc(Cl)ccc4C)CC3)csc2C)cc1 1.14%
O=C(CSc1nc2ccccc2n1CC(=O)Nc1ccc(F)cc1F)Nc1ccc(F)cc1 -11.4%
CCOc1ccc2c(c1)c(=O)c(S(=O)(=O)c1ccc(C)cc1)cn2CC(=O)Nc1ccc(C)cc1 -17.7%
COc1ccc(-n2c(SCc3nc(-c4ccc(C)cc4)no3)nnc2-c2ccncc2)cc1 -1.98%
COCCCN1CCc2nc(SCC(=O)Nc3ccc(C)c(Cl)c3)[nH]c(=O)c2C1 2.32%
CCn1c(=O)c2cc(C(=O)NCCc3cccc(C)c3)sc2c2ccccc21 -3.48%
CCCCNc1sc(S(=O)(=O)CC)nc1S(=O)(=O)c1ccc(C)cc1 -12.3%
CNS(=O)(=O)c1cn(CC(=O)Nc2ccc(F)cc2F)cc1S(=O)(=O)NC 0.847%
Cc1ccc(N2CC(c3nnc(Cc4ccc(Cl)cc4)o3)CC2=O)cc1 (stereo unspecified) 3.04%
CC(=O)Nc1cc(C(=O)NCc2ccccc2)ccc1Sc1ccc(C)cc1 8.75%
CCc1ccccc1NC(=O)CSc1nnc(-c2cc(OC)c(OC)c(OC)c2)o1 0.318%
Cc1cccc(C(=O)Nc2ccc(-c3nc4ccccc4s3)c(C)c2)c1 -11%
Cc1ccc(CNC(=O)C(C(C)C)N2Cc3ccccc3C2=O)cc1 (stereo unspecified) -1.85%
CCN(c1ccc(OC)cc1)S(=O)(=O)c1c(C(=O)N2CCCCCC2)c(C)n(C)c1C -11.2%
COc1ccc(N2CCN(CC(O)COc3ccccc3C(C)(C)C)CC2)cc1 (stereo unspecified) -17.1%
O=C(NC1CCCCC1)c1ccc(Cn2c(SCc3cccc(F)c3)nc3cccnc32)cc1 0%
CN(C(=O)CSc1cn(CC(=O)N2CCCCCC2)c2ccccc12)c1ccccc1 -6.77%
CCOCCCNC(=O)c1cnc2sc(N3CCCCCC3)nn2c1=O -3.94%
CCOc1ccc(NC(=O)Cn2c(=O)n(CCc3ccccc3)c(=O)c3c4c(sc32)CN(C(C)=O)CC4)cc1 -1.54%
CCc1ccc(NC(=O)CSC2=Nc3ccccc3C3=NC(CCC(=O)NCc4ccccc4OC)C(=O)N23)cc1 (stereo unspecified) -3.14%
O=C(CCc1nc(-c2ccccc2F)no1)Nc1cccc(C(F)(F)F)c1 -13.2%
Cc1ccc(C)c(N2CCN(C(=O)c3cccc(-n4c(C)nc5cccnc54)c3)CC2)c1 -8.39%
Cc1ccc(CC(=O)N(Cc2nc(-c3ccc(C)cc3)no2)C(C)C)cc1 -5.2%
Cc1nn(-c2ccccc2)c(OC(=O)c2ccc(Br)cc2)c1S(=O)(=O)c1ccccc1 7.95%
CCOc1ccc(OCC)c(NC(=O)c2cc(C)nc3c2c(C)nn3-c2cccc(Cl)c2C)c1 1.14%

Source: PubChem BioAssay AID493208 (National Center for Advancing Translational Sciences (NCATS), 2011)
